# Assay results published in the BET-seq Pho4 binding data (Le et al. 2018).
# Some of the results follow. Values were computed here from the reads of four pooled replicates and scatter widely.
# Target: T1, Pho4 (S. cerevisiae) (UniProt P07270)
# T1 sequence: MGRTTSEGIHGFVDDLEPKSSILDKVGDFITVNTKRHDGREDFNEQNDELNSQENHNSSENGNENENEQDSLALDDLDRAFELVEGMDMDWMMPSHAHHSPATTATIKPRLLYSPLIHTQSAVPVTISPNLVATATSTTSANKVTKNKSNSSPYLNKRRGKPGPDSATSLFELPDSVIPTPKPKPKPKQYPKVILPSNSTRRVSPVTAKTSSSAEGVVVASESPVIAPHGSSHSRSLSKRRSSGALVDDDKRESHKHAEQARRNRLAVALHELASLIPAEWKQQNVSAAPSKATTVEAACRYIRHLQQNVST
# Experiment: relative binding free energy (BET-seq); higher = weaker binding
# Settings: reference: library average
row,Sequence,relative binding free energy [kcal/mol]
1,AGGAGCACGTGGTTTA,-0.14
2,GGGGTCACGTGAATTG,0.26
3,GGGGTCACGTGAATGC,0.39
4,TTGTCCACGTGTTCGG,0.15
5,GGTTGCACGTGCGATA,-0.06
6,GCGTGCACGTGAAGTG,0.19
7,AGTGGCACGTGTTAAA,-0.13
8,TGGACCACGTGAGGAG,0.28
9,TAGTTCACGTGGGATT,0.29
10,GTGATCACGTGTTGAA,0.18
11,TGGAGCACGTGAGTTT,0.14
12,GGAATCACGTGGGGTC,0.11
13,AGGCGCACGTGTGACG,0.01
14,AATAGCACGTGTCTTG,-0.01
15,GTGTACACGTGTGGTA,0.08
16,TTACGCACGTGAATGT,0.1
17,TGGCACACGTGATTGA,0.32
18,GTTATCACGTGATTTA,0.26
19,TCGGACACGTGCGTGG,-0.02
20,TAGTCCACGTGGGCAG,0.06
21,ACAGGCACGTGGATTT,0.03
22,CGATTCACGTGGGTTT,0.23
23,GTGTCCACGTGGCGTA,0.06
24,TGTGGCACGTGCGCGG,-0.24
25,CGGGTCACGTGTGATG,0.11
26,CAGTGCACGTGGATGA,0.16

row,Sequence,relative binding free energy [kcal/mol]
1,GGCGGCACGTGGTACG,-0.06
2,TGGCACACGTGGTGAG,-0.18
3,GTTCGCACGTGTTTCG,0.13
4,GCGGTCACGTGGGTGT,-0.02
5,GTGGTCACGTGTTAGC,0.17
6,TACGCCACGTGGGTGT,-0.21
7,TCGGCCACGTGTGTGG,-0.18
8,ATGTACACGTGTAAGG,0.09
9,TGAGGCACGTGGTAGT,-0.09
10,GTAGTCACGTGGTCTG,0.08
11,GTTGGCACGTGTTCGC,0.02
12,GTTAACACGTGGTTGG,0.02
13,TTGGCCACGTGTGAAG,0.07
14,GGAATCACGTGGTTTA,0.13
15,CTTTCCACGTGTTGTG,-0.01
16,AATTGCACGTGTGCGT,-0.02
17,TGGGGCACGTGGAGGC,-0.14
18,ATGTTCACGTGGCGCT,0.07
19,AGTCTCACGTGGGGGC,0.09
20,GTTTGCACGTGTATTA,0.14
21,ATAATCACGTGGCGGT,0.21
22,GGTGCCACGTGGGAGG,-0.28
23,GGGAACACGTGGGGGT,-0.06
24,TTAGACACGTGAGTGC,0.25
25,AGTATCACGTGTTCAG,0.13
26,GTTTCCACGTGTCGGT,0.23

row,Sequence,relative binding free energy [kcal/mol]
1,TTTTACACGTGATGTG,0.24
2,AGGTTCACGTGGTAAT,0.29
3,TTCGTCACGTGGTAAA,0.07
4,GTATTCACGTGCTGTT,0.28
5,GGGTTCACGTGCGGAA,0.14
6,AGGTGCACGTGTAATC,0.21
7,TTATGCACGTGCGCAT,-0.07
8,ACTTTCACGTGATATG,0.18
9,GGTGTCACGTGCGGAT,0.02
10,GTTCTCACGTGCGGGT,0.19
11,GTATTCACGTGTGGCG,0.3
12,ATTCGCACGTGGATGT,-0.23
13,AAATGCACGTGGAGGG,-0.06
14,TGTGTCACGTGACAAT,0.19
15,TGGGTCACGTGCTTCT,0.08
16,TGGTGCACGTGACAAG,0.06
17,GGCGGCACGTGACGGA,0.1
18,TGCCTCACGTGTTAGG,0.3
19,GCGTTCACGTGGGCGG,0.19
20,TATTGCACGTGCTATA,-0.09
21,TTCGTCACGTGGGGTT,-0.07
22,TGGAACACGTGTCTGT,0.07
23,AGTATCACGTGTTATT,0.05
24,GTGGGCACGTGTTGAT,0.02
25,GGCGTCACGTGGTCGT,0.05
26,CATGTCACGTGGTTTA,0.02

row,Sequence,relative binding free energy [kcal/mol]
1,CGGGGCACGTGTTGAC,0.03
2,CTATGCACGTGCTGGT,-0.11
3,TTTCGCACGTGGTTGG,0.04
4,AATATCACGTGGTTAA,0.07
5,AAGTGCACGTGATGGC,0.19
6,TGTGGCACGTGCCTTT,-0.13
7,GTGATCACGTGAGGGC,0.31
8,AGGGTCACGTGCAGGG,0.13
9,TGGTTCACGTGCAGTA,0.28
10,TGGCACACGTGTGGGA,0.07
11,GGACTCACGTGGATGG,0.21
12,TGGTCCACGTGGAACG,0.24
13,AATGGCACGTGATTGG,0.01
14,CAGAGCACGTGAGGAG,0.23
15,TATTTCACGTGCTTTA,0.22
16,GATTGCACGTGTGTTG,0.14
17,ATACGCACGTGGTGTA,-0.26
18,GTCCTCACGTGGGGGT,-0.02
19,TGCAGCACGTGTCGTT,-0.05
20,TTGGTCACGTGGAGCT,0.1
21,ATTTTCACGTGATAGA,0.34
22,GGGGTCACGTGTACGA,0.06
23,AGATGCACGTGGGAGT,-0.07
24,TGCATCACGTGGTAGG,0.02
25,GCGTTCACGTGGTGGA,0.32
26,ATGGCCACGTGGGGAA,-0.11

row,Sequence,relative binding free energy [kcal/mol]
1,GTGTACACGTGTGAAT,0.09
2,TTAGTCACGTGGGTCC,0.07
3,CGTGGCACGTGTAGGA,0.01
4,TTGGACACGTGGGACT,0.06
5,GACGTCACGTGATTTT,0.3
6,AGGGTCACGTGATTGT,0.27
7,GTGAACACGTGGTCAG,-0.01
8,GGTAACACGTGGATAA,0.17
9,TAAAACACGTGATGTG,0.11
10,TTAAGCACGTGGTATG,-0.13
11,GTCTTCACGTGTCGGT,0.27
12,ATCTGCACGTGTAGTT,-0.04
13,GTCTTCACGTGTGGTT,0.23
14,GTTAACACGTGGAGAT,0
15,GTAGGCACGTGCGAGG,-0.1
16,TGGGGCACGTGGCAGC,-0.2
17,TGGGCCACGTGGGGCA,-0.25
18,ATATGCACGTGGTGCT,-0.21
19,TGATGCACGTGAGCAG,0.24
20,CTTCGCACGTGGGGGT,-0.25
21,AGGGGCACGTGAGCGG,-0.02
22,AGGTTCACGTGTCTTA,0.36
23,TAGTGCACGTGGTGCT,-0.19
24,CTGTGCACGTGTGTGC,0.02
25,TTTAACACGTGTTTTA,0
26,AGAGTCACGTGCAGGG,0.02

row,Sequence,relative binding free energy [kcal/mol]
1,AGTGCCACGTGGGAAG,0.01
2,AGCGACACGTGGAGTG,0.05
3,TAATACACGTGGAGTA,0.09
4,TCTGTCACGTGGATGT,0.07
5,ATTGTCACGTGTATAA,0.06
6,GATAGCACGTGGGCAG,-0.04
7,GATGTCACGTGCTTTT,0.16
8,TGGCACACGTGTCTGG,-0.01
9,CTGATCACGTGTGGCG,0.15
10,TGGGACACGTGGAGGG,0.09
11,GGGGGCACGTGTATAA,0.03
12,GGGATCACGTGCGCGG,0
13,AGTGGCACGTGGCTGC,-0.28
14,AAATGCACGTGGTTTT,-0.02
15,GGGGACACGTGGGTGT,-0.03
16,TTTTGCACGTGGGTTC,-0.01
17,AAGTGCACGTGAATTG,0.31
18,TTGCACACGTGTGTTG,-0.05
19,TAGCGCACGTGTCTGG,-0.09
20,GGAGACACGTGTATTT,0.14
21,GATGGCACGTGATTTT,0.04
22,AGTGTCACGTGATGAC,0.23
23,TTTGGCACGTGTAGAG,-0.02
24,TCTTTCACGTGGTTTT,0.33
25,GGGGTCACGTGCTTGT,0.11
26,AGATGCACGTGATTGG,0.13

row,Sequence,relative binding free energy [kcal/mol]
1,GAGATCACGTGGGGTC,0.06
2,CGCGGCACGTGAAGGG,0.19
3,AGTTGCACGTGCGGCT,-0.12
4,GCAGGCACGTGTAGTT,-0.02
5,CGGCACACGTGCGGGT,0.05
6,ACATACACGTGAGGTT,0.29
7,TCGAGCACGTGGTGCG,-0.21
8,ATGAGCACGTGACGTT,0.06
9,ATAGGCACGTGTCGGA,0
10,TATGTCACGTGATAAG,0.33
11,GTTTTCACGTGATTGG,0.4
12,AAAGTCACGTGTGGTC,0.1
13,GTTGGCACGTGAGTAC,0.16
14,GGTAACACGTGTAGCG,0.11
15,TGTGACACGTGGTTGC,-0.06
16,TTGGGCACGTGCCGAG,-0.15
17,AGGATCACGTGTGGGG,0.24
18,TGGGCCACGTGGGTAA,-0.24
19,CTGTGCACGTGGGACG,-0.08
20,CGGTCCACGTGGGAGT,-0.09
21,TGGAACACGTGGGCGG,-0.02
22,GTTGCCACGTGATAGG,0.08
23,ATTGCCACGTGGCGTT,-0.04
24,TGTTACACGTGGCCGG,0.07
25,ATGGACACGTGAGTAG,0.13
26,GCAGGCACGTGTAGGA,-0.05

row,Sequence,relative binding free energy [kcal/mol]
1,TAGGTCACGTGGTGGT,0.14
2,GCTGTCACGTGTGAAG,0.13
3,GGGATCACGTGTTTTG,0.32
4,ATGTACACGTGTCTGA,0.21
5,TTCGACACGTGGCGTG,-0.03
6,TCTGACACGTGAGATG,0.45
7,GGGTTCACGTGGTCAT,0.29
8,ATGAGCACGTGGTCGT,-0.05
9,ATATGCACGTGGTCTA,-0.14
10,TGGGTCACGTGTCTAG,-0.03
11,AGGGTCACGTGCAGTG,0.08
12,CTTGTCACGTGTTTTG,0.18
13,TGGGGCACGTGTGAAG,-0.07
14,GTTTTCACGTGTAACT,0.46
15,TGTTTCACGTGAGCAG,0.36
16,TTGAGCACGTGGAGAT,-0.04
17,AGTAGCACGTGAGCGT,0.13
18,TAGATCACGTGATTGA,0.24
19,GGGGTCACGTGGTCTA,-0.03
20,GTATTCACGTGTCGGA,0.33
21,ATAGACACGTGATGGG,0.06
22,GGGTACACGTGCAGTG,0.23
23,GGGCGCACGTGAGTGG,0.07
24,ATGGCCACGTGGTGTC,-0.19
25,GGTGTCACGTGTGCAA,-0.01
26,CCGTGCACGTGGCTTG,0.02

row,Sequence,relative binding free energy [kcal/mol]
1,GTGAACACGTGCAGGG,0.03
2,AAAATCACGTGTATGT,0.15
3,TCGGACACGTGTTTGT,-0.02
4,GGTTACACGTGCTTGG,0.14
5,ATATTCACGTGGGGCT,0.18
6,GGATACACGTGAGAGG,0.39
7,TTAGTCACGTGTTCTT,0.09
8,TCTGGCACGTGGCGGA,-0.23
9,CGTGTCACGTGGTAGA,-0.12
10,TATAACACGTGTTGGT,-0.06
11,TATGGCACGTGGGTGC,-0.15
12,GCTTGCACGTGTAATT,0.18
13,TTAGTCACGTGATGCC,0.17
14,CATTTCACGTGGAGGC,0.43
15,TGGTACACGTGGGGCT,-0.02
16,CTGCTCACGTGGGGCG,0.09
17,TTTCTCACGTGGTGGC,0.1
18,AGATGCACGTGTTTGG,-0.05
19,AGGTTCACGTGGTAGT,0.3
20,ATACTCACGTGTAGGG,0.06
21,CTGTGCACGTGGACGG,-0.05
22,TGGTACACGTGTGTCA,-0.01
